Reference: the supplement of paper PMC12217912
Some of the results follow. The full chains were built here from the parent and the listed change. Values near 0.05 are background.

B1: TEV protease; numbered along this chain (parent)
chain: MGESLFKGPRDYNPISSSICHLTNESDGHTTSLYGIGFGPFIITNKHLFRRNNGTLVVQSLHGVFKVKDTTTLQQHLVDGRDMIIIRMPKDFPPFPQKLKFREPQREERICLVTTNFQTKSMSSMVSDTSCTFPSGDGIFWKHWIQTKDGQCGSPLVSTRDGFIVGIHSASNFTNTNNYFTSVPKNFMELLTNQEAQQWVSGWRLNADSVLWGGHKVFMVKPEEPFQPVKEATQL

Variants of: B1
Assay: raw area under fraction-flipped curve 0-4 h after induction (AUC4h, not background-subtracted), DNA-recorder readout of cleavage of the substrate (dimensionless); higher = more cleavage of the substrate by the protease variant
Conditions: temperature: 34 °C; time window: 0-4 h after rhamnose induction
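Further: Bxb1 expression induced with 0.2% (w/v) L-rhamnose at OD600 near 0.5, cultures sampled hourly, flipped fraction per protease–substrate barcode pair counted by paired-end Illumina sequencing.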

| Variant | area with substrate ENLDFQS | area with substrate ENLHFQS | area with substrate ENLKFQS | area with substrate ENLLFQS | area with substrate ENLNFQS | area with substrate ENLPFQS | area with substrate ENLTFQS | area with substrate ENLEFQS | area with substrate ENLFFQS | area with substrate ENLQFQS | area with substrate ENLRFQS | area with substrate ENLGFQS | area with substrate ENLSFQS | area with substrate ENLVFQS | area with substrate ENLWFQS | area with substrate ENLMFQS | area with substrate ENLIFQS |
| --- | --- | --- | --- | --- | --- | --- | --- | --- | --- | --- | --- | --- | --- | --- | --- | --- | --- |
| E108M | 0.0582 | 0.0662 | 0.0634 | 0.0679 | 0.0688 | 0.0499 | 0.0566 |  |  |  |  |  |  |  |  |  |  |
| T114A | 0.0496 |  | 0.0788 | 0.0629 | 0.0639 | 0.062 |  | 0.1 | 0.0739 | 0.0655 | 0.0726 |  |  |  |  |  |  |
| T115F | 0.0729 | 0.0635 | 0.0646 | 0.0657 |  | 0.046 |  |  | 0.0985 | 0.0628 |  | 0.0426 | 0.0544 | 0.0852 | 0.0553 |  |  |
| F117R | 0.0562 | 0.081 | 0.0933 | 0.0619 | 0.0621 | 0.051 |  |  | 0.0861 |  | 0.0978 |  | 0.053 |  |  |  |  |
| Q118M | 0.0666 | 0.0841 | 0.0985 |  | 0.0469 |  |  | 0.0583 |  |  |  |  |  | 0.0891 |  | 0.128 |  |
| Q118V | 0.053 | 0.0783 |  | 0.0923 | 0.0582 | 0.0712 |  |  | 0.0753 | 0.0805 |  |  | 0.0555 |  |  |  |  |
| M122A | 0.0682 | 0.0682 | 0.0773 | 0.086 | 0.0667 |  |  |  | 0.0689 | 0.067 |  |  |  | 0.0877 | 0.0974 |  |  |
| S124I | 0.0596 |  | 0.0692 |  | 0.0611 | 0.0562 |  | 0.0576 | 0.101 | 0.0794 | 0.0737 |  | 0.0613 | 0.0558 | 0.0171 |  | 0.0883 |
| M125R | 0.0576 | 0.0752 | 0.0825 |  | 0.0637 | 0.0686 |  | 0.0571 | 0.0988 | 0.0623 | 0.0467 | 0.0663 | 0.0467 |  |  | 0.0793 |  |
| M125S | 0.0464 | 0.0807 |  | 0.0737 | 0.0704 | 0.0543 |  | 0.0674 | 0.0832 | 0.0762 |  | 0.0683 |  |  |  |  |  |
| S130D | 0.075 | 0.0616 | 0.0725 | 0.0557 | 0.0742 | 0.0954 |  | 0.0523 | 0.0666 |  |  |  |  |  | 0.0759 | 0.0885 |  |
| W141C | 0.0718 | 0.0565 | 0.0653 | 0.0714 | 0.0702 | 0.0607 |  | 0.0577 | 0.0646 | 0.0687 |  | 0.0414 | 0.0737 |  | 0.036 |  | 0.0615 |
| K148W | 0.0653 | 0.0752 | 0.085 | 0.0623 | 0.071 | 0.0667 |  | 0.0609 | 0.0812 | 0.0786 | 0.0559 | 0.0707 | 0.0724 | 0.0797 | 0.0474 |  | 0.0713 |
| G153P | 0.059 |  | 0.0459 | 0.0508 | 0.0499 | 0.0535 |  | 0.0419 | 0.0686 | 0.0559 |  |  | 0.0464 | 0.0398 | 0.0423 |  |  |
| P155V | 0.0712 |  | 0.0621 | 0.0842 | 0.0329 | 0.0345 |  | 0.0647 | 0.0925 |  | 0.0615 |  | 0.0637 | 0.0814 |  |  | 0.0863 |
| L156S | 0.0583 | 0.0738 | 0.0665 |  | 0.0457 | 0.058 |  |  | 0.0682 | 0.0548 |  |  |  | 0.0679 |  | 0.0465 |  |
| T181P | 0.0534 | 0.0524 | 0.073 | 0.0513 |  | 0.0568 |  | 0.0566 |  | 0.0576 | 0.062 |  | 0.0678 | 0.164 | 0.0519 | 0.0606 |  |
| V183L | 0.0704 | 0.0634 | 0.0615 |  | 0.0248 |  |  |  | 0.0723 | 0.0495 | 0.0488 | 0.108 | 0.0472 |  |  |  | 0.0907 |
| V183N | 0.064 |  |  |  | 0.0506 |  |  |  | 0.0887 | 0.0817 | 0.0613 | 0.0669 | 0.0554 | 0.108 | 0.0773 |  |  |
| L190R | 0.0635 | 0.0641 | 0.0812 | 0.0836 | 0.0643 |  |  |  | 0.0812 | 0.0617 |  | 0.0417 | 0.0813 | 0.0758 | 0.0462 | 0.0681 | 0.0752 |
| N193G | 0.0764 | 0.0466 |  | 0.0605 |  |  |  |  | 0.0602 | 0.0789 |  |  |  |  |  |  |  |
| E195M | 0.0709 | 0.0688 |  |  | 0.0548 |  |  | 0.0695 | 0.0815 |  | 0.0821 |  | 0.0529 |  | 0.081 |  |  |
| Q198D | 0.0695 | 0.0676 | 0.0653 | 0.0774 | 0.0699 |  |  | 0.0654 | 0.0795 | 0.068 | 0.0725 | 0.0602 | 0.0606 | 0.059 | 0.0638 |  | 0.0824 |

| Variant | area with substrate ENLDFQS | area with substrate ENLHFQS | area with substrate ENLKFQS | area with substrate ENLLFQS | area with substrate ENLNFQS | area with substrate ENLPFQS | area with substrate ENLTFQS | area with substrate ENLEFQS | area with substrate ENLFFQS | area with substrate ENLQFQS | area with substrate ENLRFQS | area with substrate ENLGFQS | area with substrate ENLSFQS | area with substrate ENLVFQS | area with substrate ENLWFQS | area with substrate ENLMFQS | area with substrate ENLIFQS |
| --- | --- | --- | --- | --- | --- | --- | --- | --- | --- | --- | --- | --- | --- | --- | --- | --- | --- |
| Q198E | 0.0636 | 0.0673 | 0.0807 | 0.0702 | 0.073 | 0.065 | 0.0327 |  | 0.0879 | 0.0638 | 0.0731 |  | 0.0612 | 0.0988 | 0.0716 |  | 0.0903 |
| V200M | 0.0637 | 0.038 | 0.0665 | 0.062 | 0.0655 | 0.0805 |  | 0.0675 |  |  |  | 0.0779 |  |  |  | 0.0604 | 0.0675 |
| L211P | 0.0727 | 0.0522 |  | 0.0671 | 0.041 | 0.0574 |  |  | 0.0608 |  |  |  | 0.0676 |  | 0.064 |  |  |
| G213L | 0.0599 | 0.0614 |  |  | 0.0638 | 0.0587 |  |  | 0.0538 |  |  | 0.0716 | 0.0503 |  | 0.0524 | 0.0643 |  |
| G214Y | 0.0656 |  | 0.0509 |  | 0.075 | 0.0498 |  |  | 0.0647 | 0.0523 |  |  | 0.05 |  | 0.0615 |  |  |
| E231A | 0.0578 | 0.0617 |  |  | 0.0581 |  |  | 0.0748 |  | 0.0639 | 0.0731 | 0.0797 | 0.0685 |  | 0.0734 | 0.0548 | 0.0883 |
| L77G |  |  | 0.0611 | 0.0867 |  |  |  | 0.0633 | 0.0512 |  |  | 0.0509 | 0.0391 | 0.0531 |  |  |  |
| M122T |  |  |  |  | 0.0716 | 0.0565 | 0.0612 | 0.0653 | 0.102 |  |  | 0.073 | 0.0615 |  |  |  | 0.0729 |
| V126E |  |  | 0.0762 | 0.062 |  | 0.0638 |  | 0.0689 | 0.0751 | 0.04 | 0.0522 |  |  |  | 0.067 |  | 0.0695 |
| V165A |  | 0.0457 |  | 0.0507 | 0.0549 | 0.0426 |  | 0.0468 |  | 0.0344 | 0.0564 |  | 0.06 |  | 0.0269 |  | 0.0589 |
| E189A |  |  |  |  | 0.0649 |  |  | 0.0611 |  |  |  |  |  |  | 0.0544 |  |  |
| D69T |  | 0.0989 | 0.0554 | 0.0631 | 0.0496 | 0.0628 | 0.0566 |  | 0.0779 |  |  |  |  |  |  |  | 0.0576 |
| T71P |  | 0.0618 | 0.0618 |  | 0.0896 | 0.0432 |  |  | 0.0856 |  | 0.0602 |  |  | 0.0784 | 0.0647 |  |  |
| Q105E |  | 0.0702 | 0.0703 |  | 0.0789 | 0.0529 |  |  | 0.0487 |  |  | 0.0402 | 0.0653 |  |  |  |  |
| H168C |  | 0.059 | 0.0536 | 0.0581 |  |  |  |  | 0.043 | 0.0576 |  | 0.0575 | 0.0628 |  | 0.0521 | 0.0649 |  |
| Q194L |  | 0.0814 | 0.0847 | 0.069 | 0.0589 | 0.0734 |  |  | 0.111 | 0.0663 | 0.0622 | 0.0542 | 0.0779 | 0.0958 |  |  |  |
| A207N |  |  |  |  | 0.0668 | 0.0593 |  |  | 0.0767 |  | 0.0678 | 0.0598 |  | 0.0772 | 0.0441 |  | 0.0681 |
| A207P |  | 0.0732 |  | 0.0811 |  | 0.0873 |  |  | 0.0747 |  | 0.0684 |  |  |  | 0.0581 |  | 0.0683 |
| V229I |  | 0.0708 | 0.0804 |  | 0.0614 | 0.0475 | 0.0617 |  | 0.0901 |  | 0.0673 |  |  | 0.113 | 0.0684 |  |  |
| D82R |  |  | 0.0637 |  | 0.0567 |  |  |  |  |  |  | 0.0452 |  |  |  |  | 0.0549 |
| G138N |  | 0.0557 | 0.0558 | 0.107 | 0.0632 | 0.0588 |  |  |  |  |  |  |  |  |  | 0.0695 |  |
| G166L |  |  | 0.0415 | 0.0572 | 0.0456 |  |  |  |  |  | 0.06 |  | 0.042 |  | 0.0464 |  | 0.0513 |
